Results taken from paper PMC5892938.
The other results are listed elsewhere or left out. At the low end of the ranking the order means little.

Target: GST-SBP-SLBP (stem-loop binding protein) (UniProt Q14493)
Assay: targeted RNA Bind-n-Seq;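 note: DESeq read counts versus GST-SBP nonspecific binding control pulldown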
Settings: RBNS binding buffer: 25 mM Tris pH 7.5, 150 mM KCl, 3 mM MgCl2, 0.1% Tween, 0.5 mg/mL BSA, 1 mM DTT; 27 nM protein, 750 pM RNA pool; temperature not stated; high values mean tight binding

Row | Sequence | binding signal (log2 fold change)
1 | GGUCACGUCUCAAUCAACUCAAACGAGGGGGGGAAAACCCCUUUGCCCUCAAAAUCAACAGCUCGCAGUCAAG | -0.165
2 | GGUCACGUCUCAAUCAACUCUACUUCCAGGGAAACCCCUGGUUUACUCAACAGCUCGCAGUCAAG | -0.0335
3 | GGUCACGUCUCAAUCAACUCAUCUUCCAGGGAAAACCCUGGCGUAUUCAACAGCUCGCAGUCAAG | -0.0706
4 | GGUCACGUCUCAAUCAACUCCAAAGAGGGGGGGAAAACCCCUUUACCCUCCGCAUCAACAGCUCGCAGUCAAG | 0.352
5 | GGUCACGUCUCAAUCAACUCAGUCUCAGGAGUUUUCUCCUGUUUUUUCAACAGCUCGCAGUCAAG | -0.138
6 | GGUCACGUCUCAAUCAACUCAAUAGAGGGGGGGAAAACCCCUUUACCCUCCACCUCAACAGCUCGCAGUCAAG | 0.349
7 | GGUCACGUCUCAAUCAACUCUUUUUCCAGGGAAAACCCUGGCAUAUUCAACAGCUCGCAGUCAAG | -0.0627
8 | GGUCACGUCUCAAUCAACUCUUUUUCCAGGGAAACCCCUGGCAUUUUCAACAGCUCGCAGUCAAG | 0.101
9 | GGUCACGUCUCAAUCAACUCCAAAGAGGGGGGGAAAACCCCUUUACCCUCAAAAUCAACAGCUCGCAGUCAAG | 0.0192
10 | GGUCACGUCUCAAUCAACUCUCUCGAGGGGGGGAAAACCCCUUUACCCUCAAUAUCAACAGCUCGCAGUCAAG | -0.0498
11 | GGUCACGUCUCAAUCAACUCUAUUUCAGGAGUUUUCUCCUGCUUUUUCAACAGCUCGCAGUCAAG | 0.196
12 | GGUCACGUCUCAAUCAACUCAAACGAGGGGGGGAAAACCCCUUUGCCCUCAUCUUCAACAGCUCGCAGUCAAG | 0.58
13 | GGUCACGUCUCAAUCAACUCAUGUCCAGGAGUUUCCUCCUGUUUUUUCAACAGCUCGCAGUCAAG | -0.109
14 | GGUCACGUCUCAAUCAACUCAACUCCCAGGGAAAUCCCUGGCAUACUCAACAGCUCGCAGUCAAG | 0.145
15 | GGUCACGUCUCAAUCAACUCCAUAGAGGGGGGGAAAACCCCUUUGCCCUCAUCCUCAACAGCUCGCAGUCAAG | -0.0941
16 | GGUCACGUCUCAAUCAACUCUUUUUCCAGGGAAAACCCUGGCAUUUUCAACAGCUCGCAGUCAAG | 0.0735
17 | GGUCACGUCUCAAUCAACUCUAAAGAGGGGGGGAAAACCCCUUUGCCCUCAAUGUCAACAGCUCGCAGUCAAG | 0.175
18 | GGUCACGUCUCAAUCAACUCAAGUCCCAGGGAAAGCCCUGGCAAUCUCAACAGCUCGCAGUCAAG | -0.304
19 | GGUCACGUCUCAAUCAACUCUAAAGAGGGGGGGAAAACCCCUUUGCCCUCACCAUCAACAGCUCGCAGUCAAG | 0.0504
20 | GGUCACGUCUCAAUCAACUCAACUCCCAGGGAAACCCCUGGCAAUUUCAACAGCUCGCAGUCAAG | -0.264
21 | GGUCACGUCUCAAUCAACUCAUCCCCCAGGGAAACCCCUGGCAAAUUCAACAGCUCGCAGUCAAG | -0.0865
22 | GGUCACGUCUCAAUCAACUCAUUUUCAGGAGUUUGCUCCUGUAGUCUCAACAGCUCGCAGUCAAG | 0.132
23 | GGUCACGUCUCAAUCAACUCUUUCGAGGGGGGGAAAACCCCUUUACCCUCCACAUCAACAGCUCGCAGUCAAG | 0.08
24 | GGUCACGUCUCAAUCAACUCUAACGAGGGGGGGAAAACCCCUUUGCCCUCACAAUCAACAGCUCGCAGUCAAG | 0.18
25 | GGUCACGUCUCAAUCAACUCAUUUUCCAGGGAAAUCCCUGGCAUACUCAACAGCUCGCAGUCAAG | 0.115

Row | Sequence | binding signal (log2 fold change)
26 | GGUCACGUCUCAAUCAACUCAUCGCCAGGAGUUUCCUCCUGUUUUUUCAACAGCUCGCAGUCAAG | -0.109
27 | GGUCACGUCUCAAUCAACUCUUCGUCCAGGGAAAACCCUGGCAUAUUCAACAGCUCGCAGUCAAG | -0.0982
28 | GGUCACGUCUCAAUCAACUCUUCGUCAGGAGUUUCCUCCUGCUAAUUCAACAGCUCGCAGUCAAG | 0.165
29 | GGUCACGUCUCAAUCAACUCAAACGAGGGGGGGAAAACCCCUUUACCCUCAAAAUCAACAGCUCGCAGUCAAG | 0.127
30 | GGUCACGUCUCAAUCAACUCAUCUCCCAGGGAAAACCCUGGUUAUUUCAACAGCUCGCAGUCAAG | -0.0205
31 | GGUCACGUCUCAAUCAACUCUAUCUCAGGAGUUUCCUCCUGUUAACUCAACAGCUCGCAGUCAAG | 0.164
32 | GGUCACGUCUCAAUCAACUCAUCUUCAGGAGUUUUCUCCUGCAUAUUCAACAGCUCGCAGUCAAG | 0.12
33 | GGUCACGUCUCAAUCAACUCAACUUCAGGAGUUUGCUCCUGCUAUUUCAACAGCUCGCAGUCAAG | -0.163
34 | GGUCACGUCUCAAUCAACUCUACUUCAGGAGUUUACUCCUGUUUUCUCAACAGCUCGCAGUCAAG | 0.103
35 | GGUCACGUCUCAAUCAACUCUAUCUCCAGGGAAACCCCUGGUAUUUUCAACAGCUCGCAGUCAAG | -0.0705
36 | GGUCACGUCUCAAUCAACUCUUCCUCCAGGGAAACCCCUGGUAUACUCAACAGCUCGCAGUCAAG | -0.19
37 | GGUCACGUCUCAAUCAACUCAAAAGAGGGGGGGAAAACCCCUUUGCCCUCAGAAUCAACAGCUCGCAGUCAAG | -0.195
38 | GGUCACGUCUCAAUCAACUCUUAAGAGGGGGGGAAAACCCCUUUGCCCUCAAACUCAACAGCUCGCAGUCAAG | -0.611
39 | GGUCACGUCUCAAUCAACUCAUUCGCCAGGGAAACCCCUGGGUAUUUCAACAGCUCGCAGUCAAG | 0.329
40 | GGUCACGUCUCAAUCAACUCUUCCCCAGGAGUUUCCUCCUGCAUUCUCAACAGCUCGCAGUCAAG | 0.135
41 | GGUCACGUCUCAAUCAACUCAUCUCCAGGAGUUUCCUCCUGUUUUUUCAACAGCUCGCAGUCAAG | -0.0493
42 | GGUCACGUCUCAAUCAACUCUUUUCCCAGGGAAAUCCCUGGCAUUCUCAACAGCUCGCAGUCAAG | -0.0288
43 | GGUCACGUCUCAAUCAACUCUUUCCCCAGGGAAACCCCUGGUUAUUUCAACAGCUCGCAGUCAAG | 0.0768
44 | GGUCACGUCUCAAUCAACUCUUCGGCAGGAGUUUUCUCCUGGAUAUUCAACAGCUCGCAGUCAAG | -0.0153
45 | GGUCACGUCUCAAUCAACUCUACUCCCAGGGAAAACCCUGGCAUAUUCAACAGCUCGCAGUCAAG | -0.212
46 | GGUCACGUCUCAAUCAACUCUCACGAGGGGGGGAAAACCCCUUUACCCUCAAAUUCAACAGCUCGCAGUCAAG | 0.315
47 | GGUCACGUCUCAAUCAACUCUUCCUCAGGAGUUUCCUCCUGUUUAUUCAACAGCUCGCAGUCAAG | 0.173
48 | GGUCACGUCUCAAUCAACUCUUCCCCAGGAGUUUUCUCCUGUAAACUCAACAGCUCGCAGUCAAG | 0.0123
49 | GGUCACGUCUCAAUCAACUCAAUCUCCAGGGAAACCCCUGGUAAAUUCAACAGCUCGCAGUCAAG | 0.0185
50 | GGUCACGUCUCAAUCAACUCAUAAGAGGGGGGGAAAACCCCUUUGCCCUCAAAUUCAACAGCUCGCAGUCAAG | 0.148

Row | Sequence | binding signal (log2 fold change)
51 | GGUCACGUCUCAAUCAACUCAUUUUCAGGAGUUUCCUCCUGCAAACUCAACAGCUCGCAGUCAAG | 0.102
52 | GGUCACGUCUCAAUCAACUCAUUCCCCAGGGAAACCCCUGGCUUACUCAACAGCUCGCAGUCAAG | 0.0406
53 | GGUCACGUCUCAAUCAACUCUUCCCCAGGAGUUUUCUCCUGUAUAUUCAACAGCUCGCAGUCAAG | -0.063
54 | GGUCACGUCUCAAUCAACUCAUCGUCAGGAGUUUUCUCCUGUUUUCUCAACAGCUCGCAGUCAAG | 0.0337
55 | GGUCACGUCUCAAUCAACUCAAGUCCAGGAGUUUUCUCCUGCUUUCUCAACAGCUCGCAGUCAAG | -0.018
56 | GGUCACGUCUCAAUCAACUCAUUCCCAGGAGUUUACUCCUGUAAUCUCAACAGCUCGCAGUCAAG | -0.0627
57 | GGUCACGUCUCAAUCAACUCAACGCCAGGAGUUUUCUCCUGUUAAUUCAACAGCUCGCAGUCAAG | -0.0352
58 | GGUCACGUCUCAAUCAACUCAUCUUCAGGAGUUUACUCCUGCUAUUUCAACAGCUCGCAGUCAAG | 0.201
59 | GGUCACGUCUCAAUCAACUCAAUUUCAGGAGUUUGCUCCUGCAUAUUCAACAGCUCGCAGUCAAG | 0.0259
60 | GGUCACGUCUCAAUCAACUCUUCUUCAGGAGUUUUCUCCUGUAAUUUCAACAGCUCGCAGUCAAG | 0.0517
61 | GGUCACGUCUCAAUCAACUCUAUCCCAGGAGUUUUCUCCUGCUUUCUCAACAGCUCGCAGUCAAG | 0.173
62 | GGUCACGUCUCAAUCAACUCUUUAGAGGGGGGGAAAACCCCUUUGCCCUCAUCAUCAACAGCUCGCAGUCAAG | 0.173
63 | GGUCACGUCUCAAUCAACUCUUUUUCAGGAGUUUCCUCCUGCUUAUUCAACAGCUCGCAGUCAAG | 0.181
64 | GGUCACGUCUCAAUCAACUCUACUCCAGGAGUUUUCUCCUGUUAAUUCAACAGCUCGCAGUCAAG | 0.0273
65 | GGUCACGUCUCAAUCAACUCCUACGAGGGGGGGAAAACCCCUUUACCCUCAUUAUCAACAGCUCGCAGUCAAG | 0.0802
66 | GGUCACGUCUCAAUCAACUCAUCGCCAGGAGUUUCCUCCUGUAUUUUCAACAGCUCGCAGUCAAG | -0.043
67 | GGUCACGUCUCAAUCAACUCAUAAGAGGGGGGGAAAACCCCUUUGCCCUCAAUAUCAACAGCUCGCAGUCAAG | 0.26
68 | GGUCACGUCUCAAUCAACUCAACUCCAGGAGUUUACUCCUGUAUUCUCAACAGCUCGCAGUCAAG | 0.247
69 | GGUCACGUCUCAAUCAACUCAAUAGAGGGGGGGAAAACCCCUUUGCCCUCAAUCUCAACAGCUCGCAGUCAAG | 0.451
70 | GGUCACGUCUCAAUCAACUCAACUCCAGGAGUUUUCUCCUGUUAUUUCAACAGCUCGCAGUCAAG | -0.0265
71 | GGUCACGUCUCAAUCAACUCUUCCUCAGGAGUUUCCUCCUGCAAUUUCAACAGCUCGCAGUCAAG | -0.0496
72 | GGUCACGUCUCAAUCAACUCAUCUGAGGGGGGGAAAACCCCUUUACCCUCCACAUCAACAGCUCGCAGUCAAG | -0.277
73 | GGUCACGUCUCAAUCAACUCUCAAGAGGGGGGGAAAACCCCUUUACCCUCGUUCUCAACAGCUCGCAGUCAAG | -0.189
